# Measurements from PMC10668032.
# Some of the results follow. At the low end of the ranking, values are background and their order means little.
# Target: SIX1-Q177R homeodomain (UniProt Q15475)
# Experiment: universal protein binding microarray
# Settings: Universal all-10-mer PBM (8x60K, AMADID 030236), 300 nM GST-tagged protein, Alexa Fluor 488 anti-GST; buffer, salt, pH and temperature not stated; high values mean tight binding; most listed sequences are background and not binding sites; double strand, one strand shown
row,Sequence,binding signal [E-score]
1,AATGTGAT,-0.00758
2,GACTCTGA,-0.00413
3,ACTCACTC,-0.112
4,CGTCCCTC,-0.131
5,AAAAGAAT,-0.232
6,CCGTTAGG,-0.115
7,CGCACTAA,-0.073
8,CTGGGCGA,-0.0186
9,CGTGTAAG,0.428
10,ATGCGTCA,-0.275
11,AATGATGT,-0.11
12,GCCATTCA,-0.0713
13,CCAAGGAC,-0.073
14,CAAGGGAC,-0.255
15,ATTTGTCA,-0.193
16,TAATACTA,-0.0498
17,ACACAAAA,0.106
18,ACCGCGCA,0.155
19,ACCACAGC,0.00756
20,ACCCCCCG,0.329
21,ACCCGACG,0.208
22,AGACTAAA,-0.242
23,ATCTTAAT,-0.144
24,ACGAACCA,-0.0244
25,CTGTACAG,-0.29

row,Sequence,binding signal [E-score]
1,GCTGTCTA,-0.165
2,CTTCGGTC,-0.126
3,GGGGAATA,0.0194
4,ACTAGGTG,0.218
5,AGGGACAG,-0.174
6,ACAAACAA,-0.143
7,CTAGGCGC,-0.105
8,GAGTGTTA,0.407
9,GATCAGCA,-0.179
10,GATCTTAA,-0.146
11,ATGTGAGA,-0.119
12,GAACACCC,0.471
13,AGCACGCT,-0.0486
14,GTAGCATA,0.0538
15,CATTGGGC,-0.19
16,ACAATTAA,-0.23
17,CCGAGAAG,0.0266
18,GACCCTAA,0.0347
19,CTACACCC,0.482
20,AACGCGTG,0.146
21,CTCTCACC,0.133
22,AGGTACGC,0.0656
23,CTCAAATA,-0.166
24,AGGTTGTA,-0.0243
25,GTGTGGGA,0.286

row,Sequence,binding signal [E-score]
1,AGGACCCA,-0.0116
2,AACTCGAC,9.5e-05
3,CCCGCCCC,0.179
4,AGTGAGAT,0.0662
5,AAGTGCGG,-0.071
6,ATACCTTA,-0.002
7,GCGCACCC,0.236
8,CGCTATTC,-0.0772
9,TGGGTTAA,0.146
10,CGAGTCCC,-0.0879
11,ACGACCGG,0.0864
12,AAAGGGTG,0.317
13,ACTCGCGC,0.132
14,AGCTTTTA,-0.161
15,CTTCAGGA,-0.233
16,CTTATGAA,-0.228
17,ACGTACTC,-0.0199
18,CGGTTACA,0.251
19,ACTGCAGC,-0.113
20,AGGGCTTA,-0.13
21,TCCGCAGA,-0.2
22,ACGAGTAT,-0.12
23,CGCGTACC,0.0759
24,GGGCGCGA,-0.0683
25,GCATATGC,-0.159

row,Sequence,binding signal [E-score]
1,CACCAACG,0.335
2,AACACGTA,0.343
3,AACTGTAG,-0.0282
4,ATTGAAAA,-0.138
5,AACGCCAA,0.0352
6,ATTCATCC,-0.0695
7,CCGGATTC,0.167
8,TGCGCTAA,0.066
9,ATCGAAAA,-0.106
10,CGGATTGC,-0.0858
11,CCATGGTA,0.0388
12,GAGGACCA,-0.124
13,CTAGCTCA,-0.107
14,CTAGGCGA,-0.0769
15,CACGGTCC,0.0325
16,AACCGCCC,0.11
17,CGACTCAC,-0.00197
18,CAACTCAA,0.0138
19,CGCGCGTC,-0.0681
20,CGACAGTC,-0.239
21,GCAGCAAC,-0.00496
22,ACGAACTG,-0.224
23,CAACAGAG,-0.11
24,GCAGTAGA,0.0449
25,GGGGGAAC,0.105

row,Sequence,binding signal [E-score]
1,ACCAGGCT,-0.0563
2,ACCTCGTG,0.208
3,AAAAGGGC,-0.163
4,CACCACTG,0.342
5,AGTTCCGG,0.0899
6,ACTGGGAT,-0.01
7,CAGCATGG,0.00833
8,CGGGATGC,-0.058
9,ATTGGCGC,-0.0819
10,AGGCCCGG,-0.095
11,TCCGGAGA,-0.0365
12,AACGTCTC,-0.0929
13,CAGACCAA,-0.166
14,AGAAGCGA,-0.146
15,ATAGTGGC,0.0957
16,AATTAATC,-0.26
17,AGCAACGG,-0.049
18,AGGTGCCC,0.0067
19,ACGAAATC,-0.224
20,GCCACTCA,-0.176
21,CGAACCAG,0.00568
22,GCCAACAA,-0.276
23,GCGGGAAA,-0.114
24,GCTCCTGA,-0.103
25,ATCCATCA,-0.0688

row,Sequence,binding signal [E-score]
1,AGAAAACG,-0.111
2,ACGAGGAC,0.0573
3,ATTGACTA,-0.212
4,GCGAAGCC,-0.135
5,ATGGCCTG,-0.0958
6,AAGCGACT,-0.101
7,CCATGGAA,0.156
8,ATCTAAAA,-0.226
9,AACCTCTA,-0.138
10,CGAAGTAC,0.174
11,CAGAGGCG,-0.06
12,ATAGGGTA,0.0716
13,AGCGCCAG,-0.0481
14,GTGTAAAA,0.401
15,ACTCCAGC,0.112
16,ACTACTTA,-0.0184
17,ACTATTTC,-0.138
18,CCATCTGC,-0.0601
19,AAGCCCCG,-0.0634
20,ATTGCCGA,-0.00773
21,TTCCAAAA,-0.103
22,ATCTTAGA,-0.189
23,ACACTTCG,0.327
24,CTCCCGTA,0.0446
25,ATATAGTA,0.0164

row,Sequence,binding signal [E-score]
1,GGGTGACC,0.0806
2,CTGCGGAC,-0.107
3,GACGATTA,-0.0835
4,AGGATGGC,-0.0236
5,CCAGCGCG,0.0042
6,TCAAGGCA,-0.171
7,GCGTTCCC,-0.0844
8,AAAGGAAG,-0.206
9,GATTGCAA,-0.255
10,CGCCTCCG,0.0308
11,AAACCTCC,0.0345
12,CGTTCCCA,-0.16
13,AATGTATG,-0.0693
14,AGCAATGA,-0.0598
15,ACCGGGAT,0.118
16,ACGGAAAG,-0.0425
17,AATTTTGG,-0.162
18,CCGCTGAG,-0.1
19,CCTTGTAC,0.0763
20,TCCTTTAA,-0.119
21,CTGGATTC,-0.0961
22,CAGAGAAA,-0.155
